# In all, about 410,000 compounds went through this assay and about 530 (0.13%) were called active. This list was built around the results that the source calls inconclusive (neither active nor inactive); the mix of calls is not that of the screen. Calls come from the whole dose curve; as a rule, active = well fitted inhibition curve with a large enough effect; inconclusive = small, poorly fitted or top-dose-only effect, or another doubt; inactive = no such curve, though single readings can be large or run the other way. Potencies of inconclusive entries are doubtful fits and often do not repeat.
# Assay: qHTS of GLP-1 Receptor Inverse Agonists: Cytotox Screen
# Conditions: HEK293 cAMP-luciferase reporter cells, luminescence, 24 h; series mostly up to 38.3 µM
# How it was run: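 Step one: seed cells (200 cells/uL, DMEM with 10% Nu serum, 1% pen-strep). Step two: 12-hour incubation at 37 deg C. Step three: pin 23 nL compound, incubate 24 hr. Step four: add luciferase reagent, read luminescence 12 min later.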
# Potency is the fitted concentration of half-maximal effect.
row,SMILES,Potency
1,CCC(C(=O)Nc1cc(C)nn1-c1nc(C)cc(C)n1)c1ccccc1 (stereo unspecified),"inconclusive: 6.31 µM [inhibitor, partial curve, poor fit]"
2,CCN(C(=O)c1ccc(C(C)(C)C)cc1)c1nnc(Cn2nnc3ccccc32)s1,inactive
3,O=C(NNc1nc(-c2ccc(F)cc2)cs1)c1ccccc1,"inconclusive: 28.2 µM [inhibitor, single point]"
4,C[C@H]1Cn2cnc(C(=O)Nc3ccccc3)c2C(=O)N1,inactive
5,CC(/C=C/c1ccccc1)=N\NC(=O)c1cc(C)nc2ccccc12,"inconclusive: 3.16 µM [inhibitor, partial curve, poor fit]"
6,Oc1ccc(-c2nc(-c3ccccc3)c(-c3ccc(Br)cc3)[nH]2)cc1,"inconclusive: 12.6 µM [inhibitor, single point]"
7,O=C(NC(=S)NC1CCCCC1)c1ccc(F)cc1,"inconclusive: 31.6 µM [inhibitor, single point]"
8,CCCNC(=O)C(=O)Nc1ccc2c(c1)N(S(=O)(=O)c1cccs1)CCC2,"inconclusive: 7.94 µM [inhibitor, partial curve, poor fit]"
9,Cc1ccc(-c2n[nH]c(=S)n2C)cc1Cl,"inconclusive: 12.6 µM [inhibitor, single point]"
10,Cc1csc(SCC(=O)Nc2nc3ccccc3s2)n1,inactive
11,COc1ccccc1-c1nnc2sc(-c3ccc(N(C)C)cc3)nn12,"inconclusive: 0.398 µM [inhibitor, full curve, poor fit]"
12,COc1ccc(C(CCN2CCOCC2)c2c(OC)cc(OC)c3ccc(=O)oc23)cc1 (stereo unspecified),"inconclusive: 2.24 µM [inhibitor, partial curve, poor fit]"
13,COCCCN1C(=O)c2[nH]nc(-c3ccccc3O)c2C1c1ccc(OCc2ccccc2)cc1 (stereo unspecified),"inconclusive: 17.8 µM [inhibitor, single point]"
14,O=C(CSC1=NCCS1)Nc1ccnc2ccccc12,"inconclusive: 2.82 µM [inhibitor, full curve]"
15,O=C(NCCN1CCN(c2ccccc2)CC1)c1cccc(Br)c1,"inconclusive: 5.01 µM [inhibitor, full curve]"
16,COc1ccc(NC(=S)NC(NC(=O)c2cccc(C)c2)C(Cl)(Cl)Cl)c([N+](=O)[O-])c1 (stereo unspecified),"inconclusive: 28.2 µM [inhibitor, single point]"
17,Nn1c(SCc2cccc(Br)c2)nnc1-c1ccncc1,"inconclusive: 28.2 µM [inhibitor, single point]"
18,COc1ccc(C(NC(=O)C(C)C)c2c(O)ccc3ccccc23)cc1 (stereo unspecified),"inconclusive: 28.2 µM [inhibitor, single point]"
19,N#Cc1cc(C(=O)c2ccccc2O)cn(-c2ccc(Cl)cc2)c1=O,inactive
20,CCN(CCCNC(=O)C1CCCN(S(=O)(=O)c2cnc[nH]2)C1)c1ccccc1 (stereo unspecified),"inconclusive: 20 µM [inhibitor, partial curve, poor fit]"
21,Cc1ccc(C(=O)/C=C/C(=O)O)cc1,inactive
22,Cc1c(C)n(Cc2ccccc2)c2ccc(C(=O)OCCN(C)C)cc12,"inconclusive: 11.2 µM [inhibitor, single point]"

row,SMILES,Potency
1,O=C(Nc1ccc(Cl)c(Cl)c1)Nc1ccc(N2CCCC2)c(S(=O)(=O)Nc2ccccc2Cl)c1,"inconclusive: 14.1 µM [inhibitor, partial curve, poor fit]"
2,COc1ccc(CNCC(O)COc2ccc(C(C)(C)c3ccccc3)cc2)cc1 (stereo unspecified),"inconclusive: 28.2 µM [inhibitor, single point]"
3,Cc1ccc(OCC(=O)Nc2ccc(NC(=O)c3cccs3)cc2)c(C)c1,"inconclusive: 6.31 µM [inhibitor, partial curve, poor fit]"
4,CCOC(=O)Cn1c(C(F)(F)F)nc2nc(Cl)c(Cl)nc21,"inconclusive: 31.6 µM [inhibitor, single point]"
5,O=C(Nc1ccc(Nc2ccccc2)cc1)c1ccc(Cl)c([N+](=O)[O-])c1,"inconclusive: 20 µM [inhibitor, single point]"
6,CCCC(CCC)C(=O)Nc1ccc2c(c1)N(C(=O)CN1CCN(C)CC1)c1ccccc1CC2,"inconclusive: 7.94 µM [inhibitor, partial curve]"
7,c1ccc(-c2noc(-c3cccnc3)n2)cc1,inactive
8,O=C1NC(=S)N/C1=C/c1cc([N+](=O)[O-])ccc1O,"inconclusive: 10 µM [inhibitor, partial curve, poor fit]"
9,Cc1ccc(NC(=S)NCc2ccccc2)cc1S(=O)(=O)N1CCCCC1,inactive
10,COc1ccc(/C=C2\SC(=O)N(CCNC(=O)C3=COCCO3)C2=O)cc1,"inconclusive: 11.2 µM [inhibitor, partial curve, poor fit]"
11,O=c1cc(N2CCCC2)c2ccccc2o1,inactive
12,CSCCC1NC2(C(=O)Nc3c(C)cc(Cl)cc32)[C@@H]2C(=O)N(C3CCCC3)C(=O)[C@H]12 (stereo partly specified),"inconclusive: 14.1 µM [inhibitor, single point]"
13,CCOc1ccccc1CNCCO,"inconclusive: 0.891 µM [inhibitor, partial curve, poor fit]"
14,Cc1cc(C)n2nc(/C(C#N)=C/c3ccccn3)c(C#N)c2n1,"inconclusive: 28.2 µM [inhibitor, single point]"
15,O=C(CCCn1c(=S)[nH]c2ccccc2c1=O)N1CCN(c2cccc(Cl)c2)CC1,inactive
16,CCc1cccc(NC(=S)Nc2cccc3ccccc23)c1,"inconclusive: 12.6 µM [inhibitor, single point]"
17,Cc1ccc(C(=O)Nc2cccc(Oc3ccccc3)c2)o1,inactive
18,COc1cc2[nH]c(=S)nc(Nc3ccc(NC(C)=O)cc3)c2cc1OC,inactive
19,CC(NS(C)(=O)=O)C(c1cccs1)N1CCN(c2ccccc2)CC1 (stereo unspecified),"inconclusive: 22.4 µM [inhibitor, single point]"
20,Cc1cccc(C)c1NC(=O)C1C2C=CC(C2)C1C(=O)NCc1ccccn1 (stereo unspecified),"inconclusive: 28.2 µM [inhibitor, single point]"
21,COc1cc(/C=C2\SC(=S)N(NC(=O)c3cccnc3)C2=O)ccc1O,"inconclusive: 10 µM [inhibitor, partial curve, poor fit]"
22,O=C1c2cccc(NCCNCCO)c2C(=O)c2cccc(NCCNCCO)c21,"inconclusive: 28.2 µM [inhibitor, single point]"

row,SMILES,Potency
1,CC(C)Oc1cccc(C2CC(=O)Nc3cc4c(cc32)OCO4)c1 (stereo unspecified),"inconclusive: 6.31 µM [inhibitor, partial curve, poor fit]"
2,NC(=O)CC(NC(=O)c1ccccc1)c1ccc(N2CCCCCC2)c([N+](=O)[O-])c1 (stereo unspecified),"inconclusive: 0.794 µM [inhibitor, full curve, poor fit]"
3,O=C(NCCS(=O)(=O)N1CCN(c2ccc(F)cc2)CC1)c1cccc(C(F)(F)F)c1,inactive
4,CN1C(C(=O)Nc2ccc(OC(F)(F)F)cc2)=CC(c2ccc3c(c2)OCO3)=NS1(=O)=O,inactive
5,O=C(NCc1ccccc1)c1ccc(CN2CCC(Cc3ccccc3)CC2)cc1,inactive
6,S=c1[nH]nc(-c2cc3ccccc3o2)n1Cc1ccccc1,"inconclusive: 28.2 µM [inhibitor, single point]"
7,CCOc1cc(C(=O)O/N=C(\N)c2ccccn2)cc(OCC)c1OCC,"inconclusive: 12.6 µM [inhibitor, single point]"
8,Cc1cccc(C)c1OCCNC(=O)C(=O)NCc1ccco1,"inconclusive: 3.55 µM [inhibitor, partial curve, poor fit]"
9,Cc1ccc(NC(=O)C(=O)NCC(c2ccc3c(c2)OCO3)N2CCOCC2)c(C)c1 (stereo unspecified),"inconclusive: 28.2 µM [inhibitor, single point]"
10,Cn1nc(CC(=O)Nc2ccc3c(c2)OCCO3)c2ccccc2c1=O,inactive
11,CCCCNC(=S)NCc1ccc2[nH]c3c(c2c1)CCCC3,"inconclusive: 1.78 µM [inhibitor, full curve, poor fit]"
12,CCc1ccc(Nc2cc(C)nc3nc(Cc4ccc(Cl)cc4)nn23)cc1,inactive
13,COC(=O)CCCC(=O)N1CCC(CCC(=O)NCc2ccc(F)cc2)CC1,inactive
14,CCN1CCN(c2ccc(S(=O)(=O)N3CCOCC3)cc2NC(=O)C2CCC(C(C)(C)C)CC2)CC1 (stereo unspecified),"inconclusive: 31.6 µM [inhibitor, single point]"
15,Cc1cc(F)ccc1NC(=S)NCCc1ccccc1,"inconclusive: 28.2 µM [inhibitor, single point]"
16,Cc1sc2ncn(CC(=O)NCCN3CCOCC3)c(=O)c2c1S(=O)(=O)N1CCC(C)CC1,"inconclusive: 7.94 µM [inhibitor, partial curve, poor fit]"
17,O=C(CSCc1ccc(Cl)cc1)N/N=C/c1ccc(OCC(=O)Nc2ccccc2)cc1,"inconclusive: 6.31 µM [inhibitor, partial curve, poor fit]"
18,N=C1S/C(=C\c2cccc3ccccc23)C(=O)N1c1ccc(F)cc1,"inconclusive: 2.82 µM [inhibitor, partial curve, poor fit]"
19,Cc1cc(C(=O)COC(=O)c2ccc(NC(=O)CC#N)cc2)c(C)n1-c1ccc(OC(F)F)cc1,inactive
20,O=C(NC(=S)NCCc1ccc(Cl)cc1)c1ccco1,"inconclusive: 28.2 µM [inhibitor, single point]"
21,CCOC(=O)c1ccc(-c2ccc(/C=N/NC(=O)Cc3nnc(N)s3)o2)cc1,inactive
22,C/C(=N\Nc1cc(Cl)nc(C)n1)c1ccc(C)cc1,"inconclusive: 12.6 µM [inhibitor, partial curve, poor fit]"

# Reference: PubChem BioAssay AID624418 (National Center for Advancing Translational Sciences (NCATS), 2012)
